# Source: ChEMBL document CHEMBL1157539, “Thousands of chemical starting points for antimalarial lead identification” (Nature, 2010)
# The full ranking holds about 13,000 compounds; the median of “IFI” is about 4, and the highest 2% start at about 17. This is one part of the list.
# Experiment: GSK_TCMDC: Inhibition Frequency Index (IFI). The number of non-kinase HTS assays where a compound showed > 50 % inhibition, expressed as a percentage of the number of such assays in which the compound was tested (-0 is zero)
# Assay type: functional
row,SMILES,IFI [%]
1,CC1(C)NC(N)=NC(=N)N1OCc1cc(Cl)c(Cl)cc1CON1C(=N)N=C(N)NC1(C)C,2.11
2,Cc1cccc2nc(-c3cccc(-c4cccc(NC(=O)c5cnccc5C(F)(F)F)c4)c3)[nH]c12,7.34
3,O=S(=O)(Nc1cccc(CCN2CCC(N3CCCCC3)CC2)c1)c1cccc(C(F)(F)F)c1,3.13
4,CC1(C)NC(N)=NC(=N)N1OCc1cc(Cl)cc2c1OCOC2,2.19
5,Oc1ccc(Br)cc1C(O)CNCc1ccccc1OCc1ccccc1 (centres undefined),3.88
6,CC(C)[C@H](NC(=O)c1ccc(O)c(-c2ccc(Cl)c(Cl)c2)c1)C(=O)NCCN1CCCC1,2.22
7,O=C(Nc1ccc(Cl)cc1)Nc1cccc(-c2ccc(-c3nc4ccccc4[nH]3)cc2)c1,4.04
8,Cc1[nH]c(C)c(-c2ccc(-c3ccccc3F)nc2)c(=O)c1Br,-0
9,CCOC(=O)[C@H](Cc1cc([N+](=O)[O-])c(Oc2ccc(OC)c(Cc3ccc(OC)c(C(C)C)c3)c2)c([N+](=O)[O-])c1)NC(=O)C(F)(F)F,2.31
10,O=C(Nc1ccc(-c2cccc(-c3nc4ccccc4[nH]3)c2)cc1)Nc1ccc2c(c1)OCO2,5.05
11,COc1c(CNCCCCCCNCc2cc(Cl)c3ccccc3c2OC)cc(Cl)c2ccccc12,19.4
12,O=c1cc(NCCCCNCc2cccc(C(F)(F)F)c2)[nH]c2ccccc12,3.01
13,ON=C1c2cc(OCCN3CCCCC3)c(Cl)cc2-c2cc(Cl)c(OCCN3CCCCC3)cc21,9.42
14,Cc1cc(NCCC(=O)NCCOc2ccccc2)nc(NCCc2ccc(F)cc2)n1,2.44
15,NC1=NC(c2ccccc2)N(c2ccccc2)C(N)=N1 (centres undefined),0.71
16,COc1ccc(-c2cnc3ccc(NCCCO)nn23)cc1OC,6.77
17,Clc1ccc2c(NCCCCCCCCNc3ccnc4cc(Cl)ccc34)ccnc2c1,2.21
18,CCCc1cc(=O)[nH]c(-n2nc(C)cc2NC(=O)CC(c2ccccc2)c2ccccc2)n1,12.2
19,CC(C)(C)c1ccc(NC(=O)c2cccc(CN3CCCN(Cc4ccsc4)CC3)c2)cc1,11
20,Cc1cccc2nc(-c3ccc(-c4cccc(C(=O)NCCN5CCCC5)c4)s3)[nH]c12,5.41
21,Clc1cc(Cl)c2cc(CN[C@H]3CCC[C@@H]3CNc3nc4ccccc4[nH]3)[nH]c2c1,14
22,Nc1c2c(nc3ccc(NC(=O)Cc4ccccc4)cc13)CCCC2,2.84
23,COc1ccc(NC(=O)CCNc2cc(C)nc(NCc3cccc(C)c3)n2)cc1,0

row,SMILES,IFI [%]
1,CN(C)c1ccc(/N=C2/N/C(=N/c3ccc(N(C)C)cc3)c3ccccc32)cc1,5.63
2,O=C(COc1ccccc1Cc1ccccc1)Nc1cc(Cl)ccc1-n1cncn1,0
3,O=C(Nc1cc(Cl)cc(Cl)c1)c1cc(Cl)c(=O)n(Cc2cccc(Cl)c2)c1,7.09
4,COc1ccc(-c2cnc3ccc(N4CCCC4)nn23)cc1OC,5
5,Cc1cc(CN2CC[C@H](NC(=O)c3ccc(Cl)c(Cl)c3)C2)ccc1OCCCN(C)C,6.67
6,CN(CCc1ccccc1)c1ncc(-c2ccccc2CNCc2ccccc2O)cn1,4.88
7,O=C(NCC1CCC(C(=O)NC2CCCc3ccccc32)CC1)c1ccc(O)c(-c2ccc(Cl)c(Cl)c2)c1 (centres undefined),0.76
8,c1cc(CNCCc2ccncc2)cc(-c2csc(-c3nc4ccccc4[nH]3)c2)c1,2.97
9,COc1ccc(-c2ccc(NC(=O)c3ccc(C#N)cc3)cc2)cc1CN1CCCN(C)CC1,3.92
10,N=C(N)Nc1nc(-c2cccc(NC(=O)CCCCCCCON3C(N)=NC(N)=NC34CCCCC4)c2)cs1,3.73
11,O=C(/C=C/c1ccc(Cl)c(Cl)c1)NCCCCCCN1CCCN(C(=O)Nc2cc(F)cc(F)c2)CC1,7.44
12,Cc1ccc(-n2cc(CNCCCn3ccnc3)c(-c3cccc(C)c3)n2)cc1,9.76
13,CS(=O)(=O)N(CC(O)Cn1c2ccc(Cl)cc2c2cc(Cl)ccc21)c1ccccc1 (centres undefined),-0
14,O=C(Nc1ccc(CCN2CCC(c3nc(COCC(F)(F)F)c(-c4ccccc4)o3)CC2)cc1)c1ccc(F)cc1,0.72
15,CC(CCON1C(N)=NC(N)=NC1(C)C)c1ccc(Cl)c(Cl)c1 (centres undefined),7.09
16,CC(C)CNc1nc(N)nc2ccc3c(ccn3CC(C)C)c12,8.47
17,COc1cc(CN2CCC(CO)(Cc3cccc(C(F)(F)F)c3)CC2)c(Cl)cc1O,2.44
18,O=C(/C=C/c1ccc(C(F)(F)F)cc1)NCCCCCN1CCCN(C(=O)Nc2cccc(Cl)c2)CC1,8.82
19,COc1ccc(CCN(C)CCCCc2ccc(NC(=O)c3cccc4c(=O)c5cc(F)ccc5sc34)cc2)cc1OC,10
20,COC(=O)c1cccc(CNCc2ccc(-c3ccc(-c4nc5cc(F)ccc5[nH]4)s3)cc2)c1,6.8
21,O=C(/C=C/c1ccc(Cl)cc1)NCCCCCN1CCN(C(=O)C=Cc2ccc(Cl)c(Cl)c2)CC1,6.84
22,CC(=O)c1ccc(-c2ccccc2)s1,0.75
23,Cc1cc(C(=O)Nc2nc(-c3ccccn3)nc3ccsc23)no1,8.4

row,SMILES,IFI [%]
1,CC(C)CNCc1cccc(-c2ccccc2CN(C(=O)NCCc2ccccc2)C2CCN(Cc3ccccc3)CC2)c1,14.1
2,CCc1c(CCNCC/C=C/CCNCCc2ccc(OC)c(OC)c2CC)ccc(OC)c1OC,6.15
3,CN1CCCN(Cc2cccc(-c3cccc(NC(=O)c4ccc(Cl)cc4)c3)c2)CC1,7.69
4,Cc1cccc2nc(-c3cccc(-c4cccc(NC(=O)NCc5ccccc5)c4)c3)[nH]c12,3.03
5,COc1ccc(Cl)cc1-c1nc(C(=O)NCCN2CCCCC2)c(C(C)C)s1,9.33
6,O=C(NNC(=O)c1ccc(CN2CCC(c3nc4ccccc4[nH]3)CC2)cc1)Nc1ccc(Oc2ccccc2)cc1,7.14
7,COc1ccc(CNCc2ccc(-c3ccc(CNCCc4ccccc4)cn3)cc2)cn1,1.47
8,CCCCCCN1CCC(NCc2ccc(C(F)(F)F)cc2)CC1,4.17
9,O=C1Nc2cccc3c2C1(CCCCN1CCC(c2c(-c4ccccc4)[nH]c4ccccc24)CC1)CCC3 (centres undefined),7.3
10,CCc1c(CCNCCCCCCNCCc2ccc([N+](=O)[O-])cc2)ccc(O)c1O,9.66
11,CC1CC(NCCCNc2cc(=O)c3ccccc3[nH]2)c2cc(Cl)c(Cl)c(Cl)c21 (centres undefined),6.43
12,CC1(C)NC(N)=NC(=N)N1OCCCCOc1ccc(Cl)cc1C1CCCCC1,15.3
13,CCCCc1ccc(C(=O)Nc2ccc3nc(N4CCN(C)CC4)cc(C)c3c2)cc1,7.38
14,CC(C)(C)NCC(O)COc1ccc(Cl)cc1C1=NNC(=O)CC1 (centres undefined),-0
15,Cc1ccc(C(=O)NC2C(=O)NC2c2ccccc2)c(C)c1 (centres undefined),-0
16,CCCN(CCC)S(=O)(=O)c1ccc(C(=O)N2CCC(C(=O)OCC)CC2)cc1,-0
17,COc1ccc(C(=O)NCCCCN2CCC(c3ccc4c(c3OC)CCCC4)CC2)cc1-c1ccc(C(F)(F)F)cc1,12.2
18,CC(C)(C)c1ccc2[nH]c(-c3ccc(C(=O)NC4CCN(Cc5ccccc5)CC4)s3)nc2c1,5.04
19,CC1(C)N=C(N)N=C(N)N1OCc1ccc2c(c1)OCO2,1.46
20,CC(Cc1ccc(OCCN2CCN(c3cccc(Cl)c3)CC2)cc1)NCC(O)c1cccc(Cl)c1 (centres undefined),16.4
21,COc1ccc2ncc(F)c(NC(=O)C3CCC(NCc4cc5cc(F)cc(F)c5[nH]4)CC3)c2n1 (centres undefined),1.9
22,CCCN(CCC)C(=O)c1cc(C(=O)N[C@@H](Cc2ccccc2)[C@H](O)CNC2CC2)cc(N2CCCCS2(=O)=O)c1,2.94
23,CNC(=O)C1Cc2c([nH]c3cc(Br)ccc23)C2(CCN(CCc3ccccc3)CC2)N1 (centres undefined),7.86

row,SMILES,IFI [%]
1,CCCCOC(=O)NCCCC[C@H](NC(=O)OC(C)(C)C)C(=O)N[C@H](C(=O)OC(c1ccccc1)c1ccccc1)[C@H]1O[C@@H](n2ccc(=O)[nH]c2=O)[C@@H]2OC(C)(C)O[C@@H]21,3.01
2,COc1cc(Cc2cnc3nc(N)nc(N)c3c2C)cc(OC)c1OC,1.6
3,CCN(CC)CCCNc1nccc(N(C)c2ccc(NC(=O)Nc3cc(C(F)(F)F)ccc3F)cc2)n1,5
4,Cc1cc2c(/C=C/C(=O)NC3CCC(CCN4CCc5ccc(C#N)cc5CC4)CC3)cccc2[nH]1 (centres undefined),2.29
5,CCOc1cc(C(=O)NCc2ccc(Cl)c(Cl)c2)ccc1-c1nc2cc(Cl)ccc2[nH]1,1.53
6,CCN1C(c2ccc(Cl)cc2)C(CNCc2ccccc2O)CC1(C)CO (centres undefined),6.98
7,c1ccc(-c2nc(NC3CCCCC3)cc(C3CC3)n2)nc1,7.83
8,CC(=O)Oc1cc(C)ccc1C1CCN(CCCCNC(=O)c2ccc(NC(=O)c3ccc(Cl)cc3)cc2)CC1,-0
9,COc1ccc2nc(Nc3nc4cnccc4[nH]3)sc2c1,3.82
10,O=C(C=Cc1ccc(Cl)c(Cl)c1)NCCCCCN1CCC(CCNS(=O)(=O)c2ccc(F)cc2)CC1,6.52
11,C=CCc1c(C(=O)NCC23CC4CC(CC(C4)C2)C3)nc2ccccc2c1O,0.78
12,COc1ccc(/C=C/C(=O)Nc2ccc(-c3ccncc3)cc2)cc1CCCN(C)C,2.99
13,CCOc1ccc(Cc2c(C)nc3nc(N)nc(N)c3c2C)cc1,2.19
14,Cc1sc2cc(Cl)cc(Cl)c2c1S(=O)(=O)Nc1ccc2nccc(N3CCNCC3)c2c1,6.11
15,Cc1noc(C)c1-c1cccc(CNCc2cccc(-c3ccc(-c4nc5ccccc5[nH]4)s3)c2)c1,3.92
16,Cc1cccc2nc(-c3ccc(-c4ccc(NC(=O)C5CCN(C)CC5)cc4)cc3)[nH]c12,4.24
17,CCCCCCN1CCC(NCc2ccc(CN(C)C)cc2)CC1,3.38
18,COc1ccc2ncc(F)c([C@@H](O)CN3CCC(NCc4ccc5c(c4)NCCS5)CC3)c2n1,5.59
19,Cc1nc(C(=O)N2CCCC[C@H]2CNC(=O)c2ccc(-c3ccc(N4CCCC4=O)cc3C)cc2)c(-c2ccc(F)cc2)s1,2.9
20,CC1CN(c2ccc(C(=O)NCC3CC3)cc2NC(=O)OCc2ccccc2)CC(C)O1 (centres undefined),2.38
